# According to publication PMC4336329 (PLoS ONE, 2015):
# Hit rate of the full screen: of about 310,000 compounds, about 14,000 (4.5%) showed an effect of 50% or more. The effect is printed as a negative number. Some of the results follow.
# Target: human ether-à-go-go-related gene (hERG) potassium channel (human, UniProt Q12809)
# Assay: primary screen, population patch clamp on CHO cells stably expressing hERG
# 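Further: peak tail current of the secondary pulse compared with the same well before compound.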
# Chain of human ether-à-go-go-related gene (hERG) potassium channel (Q12809 whole entry, looked up): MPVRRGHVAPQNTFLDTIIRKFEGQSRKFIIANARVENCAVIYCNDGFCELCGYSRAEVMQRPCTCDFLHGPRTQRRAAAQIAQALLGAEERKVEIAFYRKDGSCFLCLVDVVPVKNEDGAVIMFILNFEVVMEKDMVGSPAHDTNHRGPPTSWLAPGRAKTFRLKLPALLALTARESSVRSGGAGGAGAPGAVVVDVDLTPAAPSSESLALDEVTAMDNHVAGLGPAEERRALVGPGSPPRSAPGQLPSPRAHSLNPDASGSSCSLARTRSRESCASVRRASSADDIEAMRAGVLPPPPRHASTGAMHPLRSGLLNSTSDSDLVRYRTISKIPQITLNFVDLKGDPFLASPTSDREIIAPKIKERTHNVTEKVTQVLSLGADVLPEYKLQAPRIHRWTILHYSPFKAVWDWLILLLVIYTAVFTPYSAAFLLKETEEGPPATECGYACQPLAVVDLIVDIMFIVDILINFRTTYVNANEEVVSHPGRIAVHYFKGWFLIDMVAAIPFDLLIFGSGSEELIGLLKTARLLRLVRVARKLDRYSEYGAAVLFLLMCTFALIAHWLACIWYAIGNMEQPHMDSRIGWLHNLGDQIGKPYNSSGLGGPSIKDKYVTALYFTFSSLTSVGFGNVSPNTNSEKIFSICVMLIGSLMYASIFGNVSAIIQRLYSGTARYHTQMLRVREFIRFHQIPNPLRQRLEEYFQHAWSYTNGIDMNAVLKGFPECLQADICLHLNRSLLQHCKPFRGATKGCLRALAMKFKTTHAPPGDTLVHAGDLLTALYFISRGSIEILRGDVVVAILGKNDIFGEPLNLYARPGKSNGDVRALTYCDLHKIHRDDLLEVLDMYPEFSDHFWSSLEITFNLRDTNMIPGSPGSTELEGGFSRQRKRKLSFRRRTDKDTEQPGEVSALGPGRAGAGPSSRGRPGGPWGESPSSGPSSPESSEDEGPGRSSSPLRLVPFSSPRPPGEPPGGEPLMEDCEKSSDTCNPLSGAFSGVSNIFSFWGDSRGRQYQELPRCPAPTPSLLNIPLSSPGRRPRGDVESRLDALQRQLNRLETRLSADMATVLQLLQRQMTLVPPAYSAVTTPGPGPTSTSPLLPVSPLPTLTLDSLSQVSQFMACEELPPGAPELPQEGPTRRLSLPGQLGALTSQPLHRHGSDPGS
row,SMILES,"hERG current change (%, negative = inhibition) at 10uM"
1,COc1ccccc1N1C(=O)c2ccc(C(=O)Nc3ccccc3O)cc2C1=O,12.5%
2,CCN(CC(=O)N1CCc2ccccc2C1)S(=O)(=O)c1ccc2ccccc2c1,-32.2%
3,c1ccc2[nH]c(NCCCN3CCOCC3)nc2c1,-6.61%
4,Nc1ccc(C(=O)O)cc1[N+](=O)[O-],11.7%
5,COc1ccc(/C=N/NC(=O)c2cccc(C(=O)N/N=C/c3ccc(OC)cc3)n2)cc1,19%
6,O=C(Nc1ccc(F)c(F)c1)c1ccc(-n2cncn2)c([N+](=O)[O-])c1,-35.7%
7,CCOC(=O)c1c(S(=O)(=O)NCC(=O)Nc2ccc(F)cc2F)c(C)n(C)c1C,2.01%
8,Cc1cccc(OCCCC(=O)Nc2ccccc2C(F)(F)F)c1,1.44%
9,Cc1ccc(NC(=O)C[n+]2ccn(C3=C([O-])c4ccccc4C3=O)c2)cc1,21.5%
10,COc1ccc(S(=O)(=O)NNC(=O)c2ccccc2-n2cccc2)cc1,9.16%
11,CNC(C(=O)c1ccccc1)C(OC)c1ccc(C)cc1.[O-][Cl+3]([O-])([O-])O (stereo not shown),8.84%
12,O=C(O)c1ccc(/C=N/Nc2ccc(Cl)nn2)cc1,20.9%
13,O=C(Nc1ccc(C(=O)NCc2ccccc2)cc1)C1=CSCCO1,21.8%
14,CCOc1cc(NC(=S)NCc2ccccc2)c(OCC)cc1NC(=O)C(C)C,13.6%
15,COc1cccc(OCCNC(=O)CSc2ccc(C(F)(F)F)cc2[N+](=O)[O-])c1,10.5%
16,COC(=O)c1cc(C(=O)OCC(=O)NCc2cccs2)cc([N+](=O)[O-])c1,-19%
17,FC(F)Oc1ccc(NC(=S)Nn2cnnc2)cc1,-9.86%
18,C=CCN(CC=C)C(=O)c1cc2ccccc2c(=O)o1,-4.56%
19,CCN1CCC2(CC1)C(C#N)=C(N)Oc1c2sc2nc(C)cc(C)c12,-45.5%
20,COc1ccc2[nH]c(C(=O)Nc3ncc(C)cc3Br)cc2c1,2.5%
21,O=C(NN=C1CCCC1)c1ccc(Br)cc1,6.05%
22,Cn1nc(C(F)(F)F)c(-c2cccc(C(F)(F)F)c2)c1NC(=O)Nc1ccc(F)cc1,7.44%
23,COc1ccc(CN2CCCCCC2)cc1,-10.9%
24,CC(=O)Nc1ccc(/C=N/OCC(=O)Nc2ccc(C)cc2)cc1,-7.94%
25,Cc1nn2c(-c3ccc(F)cc3)ccnc2c1Br,9.61%
